# In all, about 310,000 compounds went through this assay and about 18,000 (5.8%) were called active. Inconclusive means that the source gave no clear call. Such entries were picked first, then a sample of the others. Calls follow the shape of the dose curve; as a rule, active = well fitted inhibition curve with a large enough effect; inconclusive = small, poorly fitted or top-dose-only effect, or another doubt; inactive = no such curve, though single readings can be large or run the other way. Potencies of inconclusive entries are left out as doubtful fits.
# Assay: Primary qHTS for delayed death inhibitors of the malarial parasite plastid, 48 hour incubation
# Conditions: P. falciparum luciferase growth in erythrocytes; series mostly up to 28.7 µM; activity change, negative = inhibition: at the top concentration
# Method in brief: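 First compound was added to culture medium, then infected red cells at 0.1% parasitemia and 2% hematocrit (final). After incubation at 37 C under 5% CO2, luciferase detection reagent was dispensed and light output recorded.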
# % is scaled to controls: 0 for no effect and ±100 for the full control effect; potency is read from the fitted curve at half-maximal effect; tags tell the direction and shape of the fitted curve.
Compound,Potency,"activity change, negative = inhibition"
CCOC(=O)N1CCC(=NNc2ccnc3cc(Cl)ccc23)CC1,"inconclusive [inhibitor, partial curve, poor fit]",–
C[C@H](O)CC1=C[C@H](O)[C@@H](C)OC1=O,–,inactive: 2.57%
COc1ccc(C)cc1S(=O)(=O)N1CCN(C(=O)c2ncoc2-c2ccc(C)cc2)CC1,–,inactive: 0.606%
CCc1cccc2[nH]c3cc([N+](=O)[O-])ccc3c12,"inconclusive [inhibitor, single point]",–
C=C(C)CNC(=S)N/N=C/c1ccc([N+](=O)[O-])cc1,active: 11.7 µM,–
CC1Cc2ccccc2N1C(=O)CN1C(=O)COc2ccccc21 (configuration not stated),"inconclusive [inhibitor, single point]",–
COc1ccc(CC(=O)NCC2CCCN(Cc3ccccc3OC)C2)cc1 (configuration not stated),–,inactive: -33.9%
O=C(Oc1ccc(OC(=O)c2ccco2)c(S(=O)(=O)c2ccc(Cl)cc2)c1)c1ccco1,–,inactive: 4.18%
Cc1cccc(N(CC(=O)NC(C)C)C(=O)CCC(=O)Nc2nccs2)c1,active: 9.28 µM,–
ClCc1nc2ccccc2n1Cc1ccccc1,active: 6.57 µM,–
CCOC(=O)C1=C(N2CCCCC2)c2cc3c(n2C1=O)CCCC3,"inconclusive [inhibitor, partial curve]",–
CSc1ccc(CN2CCC(Oc3cccc(C(=O)N4CCCC4)c3)CC2)cc1,"inconclusive [inhibitor, single point]",–
O=C(CNc1ccccc1)N/N=C/c1ccc2c(c1)OCCO2,–,inactive: 38.5%
CCOC(=O)N1CCN(Cc2nc3cc(NC(=O)CC)ccc3n2CC)CC1,"inconclusive [inhibitor, single point]",–
Cn1c(=O)c2c(ncn2CC(=O)OCC(=O)NNC(=O)c2ccc(Cl)cc2)n(C)c1=O,–,inactive: 1.94%
COc1ccc(-n2c(/C=C/c3ccc(O)cc3)nc3ccccc3c2=O)cc1,"inconclusive [inhibitor, partial curve, poor fit]",–
O=C(Nc1ccc(N2CCN(C(=O)c3ccco3)CC2)cc1)c1cc(Br)ccc1Cl,active: 13.1 µM,–
COc1ccc(-c2nn(-c3ccccc3)cc2/C=C2/SC(=S)N(Cc3ccco3)C2=O)c(C)c1,"inconclusive [inhibitor, single point]",–
CCCCOc1cc(C(=O)OCCN(CC)CC)ccc1N,inactive,–
Cc1ccc(Cl)cc1N1CCN(C(=O)CCS(=O)(=O)c2cccc3nonc23)CC1,"inconclusive [inhibitor, single point]",–
O=C(O)c1ccccc1/C=N/Nc1ccc(S(=O)(=O)N2CCCC2)cc1[N+](=O)[O-],"inconclusive [inhibitor, partial curve]",–
CC12CC(NC(=O)N1c1ccc(C(=O)N3CCN(c4ccc(F)cc4)CC3)cc1)c1ccccc1O2 (configuration not stated),"inconclusive [inhibitor, single point]",–
CCCCCCCCn1c2c(c(=N)c3ccccc31)CCC2,–,inactive: 12.4%
O=C(c1ccc2c(c1)OCO2)C1CCCN(Cc2cccn2-c2cccnc2)C1 (configuration not stated),"inconclusive [inhibitor, single point]",–

Compound,Potency,"activity change, negative = inhibition"
O=C(COc1ccc2ccccc2c1)NNC(=O)c1ccccc1,–,inactive: 37.8%
Cn1cnc([N+](=O)[O-])c1Sc1nc2ccccc2[nH]1,"inconclusive [inhibitor, single point]",–
CCOC(=O)c1c(-c2ccccc2)oc2ccc(O)c(CN3CCCC3)c12,active: 1.85 µM,–
CC1C/C(=N\Nc2ccc(S(N)(=O)=O)cc2[N+](=O)[O-])CC(C)(C)C1 (configuration not stated),–,inactive: -29.6%
Cc1c(CN(C)C(=O)c2sc3cc(Cl)ccc3c2Cl)cnn1C,"inconclusive [inhibitor, partial curve, poor fit]",–
CN(C1CCCCC1)S(=O)(=O)c1cccc(C(=O)Nc2ccccn2)c1,"inconclusive [inhibitor, single point]",–
Cc1oc(-c2ccccc2)cc1C(=O)NC1CCN(Cc2ccccc2)CC1,–,inactive: 41.8%
CC1=CC(C)(C)NC(=S)N1c1cccc(C)c1,"inconclusive [inhibitor, partial curve]",–
CCN(CC)S(=O)(=O)c1ccc(C(=O)NC2CN3CCC2CC3)cc1 (configuration not stated),–,inactive: -4.87% [at 0.00184 µM]
CC(C)(C)C(=O)NCCN1C(=O)S/C(=C\c2ccc([N+](=O)[O-])cc2)C1=O,"inconclusive [inhibitor, single point]",–
CCN(CC)C(=O)Cn1cc(S(=O)(=O)CC(=O)Nc2ccc(F)cc2F)c2ccccc21,–,inactive: 22.4%
COc1ccc(Cl)c(Cn2c(NCC(C)O)nc3c2c(=O)n(C)c(=O)n3C)c1 (configuration not stated),"inconclusive [inhibitor, full curve, poor fit]",–
Cc1cccc(CCN(C(=O)c2snc(C(N)=O)c2N)C(C(=O)NCC2CCCO2)c2ccc(F)cc2)c1 (configuration not stated),"inconclusive [inhibitor, partial curve]",–
CCOc1ccccc1N1CCN(CC(=O)c2c(N)n(C)c(=O)n(C)c2=O)CC1,"inconclusive [inhibitor, single point]",–
O=C(CNC(=O)c1ccc(Cl)cc1Cl)OCCOc1ccccc1,–,inactive: 72.6%
Cc1cc(O)c2c(C)c(CC(=O)N3C[C@H]4C[C@@H](C3)c3cccc(=O)n3C4)c(=O)oc2c1,"inconclusive [inhibitor, single point]",–
O=c1c2c(-c3cccs3)csc2ncn1-n1cccc1,"inconclusive [inhibitor, full curve, poor fit]",–
Cc1occc1C(=O)NCCCCNC(=O)c1ccoc1C,–,inactive: -12.3%
Cc1nc2sc3c(c2c(=O)n1/N=C/c1cccnc1)CCCC3,"inconclusive [inhibitor, single point]",–
O=C1CC(N2CCOCC2)C(=O)N1c1ccc(Cl)cc1 (configuration not stated),active: 7.38 µM,–
O=C(Nc1ccc(F)c(F)c1)c1ccccc1,–,inactive: 94.5%
Cc1cc(N)n(-c2ncnc3scc(-c4ccc(Cl)cc4)c23)n1,"inconclusive [inhibitor, single point]",–
Cc1nn(-c2ccccc2)cc1/C=N/NC(N)=S,"inconclusive [inhibitor, single point]",–
OCC[C@@H]1C[C@H](O)[C@@H](O)[C@]2(Cc3ccccc3CCO2)O1,"inconclusive [inhibitor, partial curve, poor fit]",–

Compound,Potency,"activity change, negative = inhibition"
COc1ccc(/C=C/C(=O)NC2CC3CCC2C3)cc1 (configuration not stated),–,inactive: -12.9%
CN1/C(=C\C(=O)C[n+]2ccc3ccccc3c2)C(C)(C)c2ccccc21,"inconclusive [inhibitor, full curve]",–
C=CCn1c(=O)c2ccccc2n2c(Sc3nnnn3-c3ccccc3)nnc12,"inconclusive [inhibitor, single point]",–
COc1ccc(Br)c(-c2nc(CS(=O)(=O)c3ccc(F)cc3)no2)c1,–,inactive: 29.3%
O=C(Nc1ccc(F)cc1)c1ccc(S(=O)(=O)N2CCCC2)cc1,"inconclusive [inhibitor, partial curve, poor fit]",–
CC(C)(C)P(=O)(c1ccncc1)N1CCCC1 (configuration not stated),"inconclusive [inhibitor, partial curve, poor fit]",–
Cc1ccc2cc(C(c3nnnn3C3CCCC3)N3CCN(c4ccc(F)cc4)CC3)c(=O)[nH]c2c1 (configuration not stated),active: 5.86 µM,–
COc1ccc(C2Nc3ccccc3C(=O)N2c2ccc(Cl)cc2)cc1Cn1cc([N+](=O)[O-])cn1 (configuration not stated),–,inactive: 4.94%
CC(C)N(CCn1c(SCC(=O)N2CC(=O)Nc3ccccc32)nc2ccccc2c1=O)C(C)C,"inconclusive [inhibitor, single point]",–
CC(Sc1nnnn1C)C(=O)Nc1cc(S(=O)(=O)N2CCCCC2)ccc1Cl (configuration not stated),"inconclusive [inhibitor, single point]",–
CC1=NN(c2ccccc2)C(=O)/C1=C/C=C/c1ccccc1,"inconclusive [inhibitor, single point]",–
Cc1cccc(C)c1OCc1nc2ccccc2c(=O)n1/N=C/c1ccc(OCC(=O)O)cc1,–,inactive: -2.5%
Cc1ccc(Cn2nnc3c(=O)n(Cc4cccc(C)c4)cnc32)cc1,"inconclusive [inhibitor, single point]",–
COC(=O)c1ccc(NC(=O)CSc2nncn2-c2cccnc2)cc1,–,inactive: 50.5%
CCCCN(CC)Cc1ccc(CNC(=S)Nc2ccc(C)cc2Cl)o1,"inconclusive [inhibitor, single point]",–
O=C(O)c1ccc(-c2nc(-c3ccccc3Cl)cs2)cc1,–,inactive: 57.2%
O=C(c1ccco1)N1CCN(S(=O)(=O)c2c(Cl)cccc2Cl)CC1,–,inactive: 27%
CCN(C(=O)COC(=O)/C=C/c1cccc(Cl)c1)c1c(N)n(Cc2ccccc2)c(=O)[nH]c1=O,"inconclusive [inhibitor, single point]",–
O=C(Nc1ccccc1)Nc1ccncc1,"inconclusive [inhibitor, partial curve]",–
CC(C)(C)C1(O)CC(C(F)(F)F)=NN1C(=O)CCc1ccccc1 (configuration not stated),–,inactive: 12.6%
CCc1ccc(C(=O)COC(=O)c2cccc(N3C(=O)c4c(C)nc5ccccc5c4C3=O)c2)cc1,–,inactive: 53.5%
COc1cc(C)c(Cl)c(C)c1S(=O)(=O)NC1CC(C)(C)NC(C)(C)C1,"inconclusive [inhibitor, single point]",–
CCC1CCCCN1Cc1nc2c(c(=O)n(C)c(=O)n2C)n1CC(C)C (configuration not stated),"inconclusive [inhibitor, single point]",–
CCCSc1nc2cc(OC)c(OC)cc2c(=N)n1CCCN1CCOCC1,active: 11.7 µM,–
